Measurements reported in the BET-seq Pho4 binding data (Le et al. 2018).
The other results are listed elsewhere or left out. The energies were worked out here from pooled read counts, against the library average; single values are noisy.

Biological target: T1, Pho4 (S. cerevisiae) (UniProt P07270)
T1 sequence: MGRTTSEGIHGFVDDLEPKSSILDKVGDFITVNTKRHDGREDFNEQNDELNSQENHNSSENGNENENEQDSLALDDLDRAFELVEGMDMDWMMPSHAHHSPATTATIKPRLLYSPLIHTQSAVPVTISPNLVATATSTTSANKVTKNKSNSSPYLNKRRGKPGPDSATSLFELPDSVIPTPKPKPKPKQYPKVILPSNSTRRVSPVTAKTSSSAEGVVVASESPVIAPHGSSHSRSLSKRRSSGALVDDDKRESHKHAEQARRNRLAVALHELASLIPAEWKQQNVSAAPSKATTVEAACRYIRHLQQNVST
Test: relative binding free energy (BET-seq); higher = weaker binding
Settings: reference: library average

| Sequence | relative binding free energy [kcal/mol] |
| --- | --- |
| ATGAACACGTGTAAAT | 0.4 |
| CGTGGCACGTGGGCGG | -0.37 |
| TGTCACACGTGGCGTG | -0.05 |
| TATTTCACGTGAAATA | 0.22 |
| ATGTTCACGTGTCGCG | 0.25 |
| ATGATCACGTGTGAGG | 0.24 |
| CGCTGCACGTGTGGGA | 0.01 |
| TTACTCACGTGAGGAT | 0.47 |
| CTTATCACGTGATTGT | 0.23 |
| GATGTCACGTGAGGCT | 0.44 |
| AATGCCACGTGATGTT | 0.23 |
| TGTAGCACGTGATCGG | 0.05 |
| TTTTCCACGTGTATGA | 0.06 |
| TCATTCACGTGGTGTC | 0.12 |
| GTTTTCACGTGACGTC | 0.49 |
| GAGGGCACGTGGTAGG | -0.07 |
| TCATGCACGTGGTGGG | -0.12 |
| CGTAACACGTGGTATT | -0.09 |
| GAGTACACGTGAGTTG | 0.35 |
| ATACGCACGTGGGGAG | -0.25 |
| GTTGACACGTGGTATT | -0.05 |
| CTTGCCACGTGGTTGG | -0.15 |
| AGTGGCACGTGCTGCG | -0.19 |

| Sequence | relative binding free energy [kcal/mol] |
| --- | --- |
| GTTGACACGTGAGGGC | 0.24 |
| TGGCTCACGTGATAGG | 0.33 |
| TCGAGCACGTGTATGG | 0 |
| TGTGGCACGTGGGTTA | -0.17 |
| CGTGTCACGTGTTGCG | 0.03 |
| TTAGGCACGTGCGAGA | -0.13 |
| ACTGACACGTGGTGTG | -0.03 |
| GAGGTCACGTGCGTGA | 0.08 |
| TGGGTCACGTGTGCAC | 0.01 |
| TGGTCCACGTGAGGCT | 0.25 |
| ACTGTCACGTGGTTGT | 0.13 |
| TTGCACACGTGGCGTG | -0.05 |
| TATATCACGTGGCAGT | -0.06 |
| GGAGGCACGTGTTAAT | 0.01 |
| ATTGGCACGTGAGGCA | 0.04 |
| GATGACACGTGCGGTT | 0.03 |
| TTAGACACGTGATGGG | 0.29 |
| TGGGGCACGTGTCTGG | -0.16 |
| AGGCACACGTGTTGTG | 0.06 |
| TATGGCACGTGAGCTT | -0.01 |
| GAGAGCACGTGTTGAC | 0.23 |
| GGGAGCACGTGCACGG | -0.12 |
| CCGGGCACGTGGTGGA | -0.18 |

| Sequence | relative binding free energy [kcal/mol] |
| --- | --- |
| TACTGCACGTGTGTTT | 0.06 |
| GGTCTCACGTGTAGTG | 0.25 |
| ATGAACACGTGTTTTA | -0.01 |
| TAGGACACGTGTAATG | 0.12 |
| TATATCACGTGATTAT | 0.17 |
| TTGGACACGTGGTGAT | -0.09 |
| TTTCTCACGTGTGGCG | 0.22 |
| CGTATCACGTGGTTGA | 0.09 |
| CATGACACGTGTTTGG | -0.08 |
| CATATCACGTGTGAGT | 0.19 |
| TGGCACACGTGTCTGT | 0.08 |
| GAACTCACGTGGGTTG | 0.14 |
| GGTTTCACGTGAGACG | 0.23 |
| AAGGACACGTGAAAGG | 0.27 |
| AAGGGCACGTGTGTTG | -0.12 |
| GTGGCCACGTGGTCAG | 0.04 |
| TGTCTCACGTGTTGGA | 0.19 |
| GTCATCACGTGTAGAG | 0.26 |
| GTAAGCACGTGGTACG | -0.2 |
| GTGGGCACGTGAGCAT | 0.05 |
| GCGTTCACGTGAGGTT | 0.4 |
| TTGAGCACGTGTGAGA | 0.02 |
| TTGATCACGTGGCATT | 0 |

| Sequence | relative binding free energy [kcal/mol] |
| --- | --- |
| TTCTGCACGTGGTTGT | -0.04 |
| AATAACACGTGTGCTG | 0.04 |
| ATTATCACGTGATGTT | 0.33 |
| GTGTACACGTGTCGTT | 0.06 |
| AGAAGCACGTGAGGGT | 0.08 |
| CGGTACACGTGGGATT | -0.01 |
| CTAGTCACGTGGTAGT | 0.03 |
| AACTTCACGTGTGTTG | 0.27 |
| AATTTCACGTGGGATA | 0.15 |
| ATTAGCACGTGTGATA | -0.01 |
| AATCTCACGTGGGTAG | 0.18 |
| GTGATCACGTGGCTGG | 0.11 |
| TTTCACACGTGTTAGT | 0.03 |
| AGGGACACGTGGTATA | -0.08 |
| GTGAGCACGTGGGTTA | -0.11 |
| AAAATCACGTGTTATT | 0.07 |
| ATTTGCACGTGATGTT | 0.04 |
| GTTACCACGTGTTGGC | 0.13 |
| ATGATCACGTGTAAAG | 0.17 |
| AGGGTCACGTGAGTTT | 0.21 |
| TGTCTCACGTGGGAGC | 0.19 |
| TAGTTCACGTGTACTG | 0.34 |
| CGGGTCACGTGGAAAG | 0.24 |

| Sequence | relative binding free energy [kcal/mol] |
| --- | --- |
| CGGGTCACGTGTGCTA | 0.15 |
| TGCGTCACGTGATGAG | 0.31 |
| TTGAGCACGTGGGGAA | -0.09 |
| ATCTGCACGTGGTAGG | -0.15 |
| GTGAACACGTGTGAGC | 0.22 |
| ATGCTCACGTGGTTTG | 0.16 |
| CGTTGCACGTGTGTGG | 0.03 |
| TAGGTCACGTGAGTGT | 0.28 |
| ATAGTCACGTGGTAGT | -0.03 |
| GGCGTCACGTGAGTTG | 0.23 |
| TGGCGCACGTGATGAT | 0.06 |
| TCGTGCACGTGTATTG | -0.08 |
| GATGTCACGTGGTGCA | 0.06 |
| TCTCTCACGTGTTTTT | 0.25 |
| CGGGGCACGTGGGGCG | -0.21 |
| AGAGGCACGTGGGCAG | -0.33 |
| TTTGGCACGTGGTAAC | -0.06 |
| TTTCACACGTGGTGGC | 0.07 |
| GTAGGCACGTGAGTAT | 0.28 |
| GTGGACACGTGTGTTT | 0.09 |
| TCGTACACGTGCTGTG | 0.09 |
| ATCTACACGTGTAGGG | 0.1 |
| GTTGGCACGTGTTGTC | 0.13 |
